Results on 69 variants are retold here after the supplement of paper PMC12067230.

This is a noisy data set.

B1: library; a variant is named by its letters at X, in order (parent)
chain: EASNCFAIRHFENKFAVETLICXXXXXXXXX
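Note: [psi-pin-] Saccharomyces cerevisiae expressing SupN fusions, induced by 100 µM Cu2SO4, selected 7 d at 30 °C without adenine and uracil, scored by deep sequencing of output versus input.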

One data set covers variants of B1. The data set can be described thus: amyloid nucleation score relative to library mode (yeast Sup35 reporter selection) (log enrichment difference); higher = more amyloid nucleation; sequences are the first 22 residues of the Bri2 peptide extended by up to 12 random residues. As to conditions: random library (experiment): 2;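 active = nucleation score significantly above 0 at FDR 0.05; inactive = not significantly above 0 or absent from output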.
As for EASNCFAIRHFENKFAVETLICGYISTNKLS [GYISTNKLS], the amyloid nucleation score result is “inactive”.

For EASNCFAIRHFENKFAVETLICVGIVSTRRQ [VGIVSTRRQ], the amyloid nucleation score worked out at 3.66.

As to EASNCFAIRHFENKFAVETLICKSVDNKSYR [KSVDNKSYR], the amyloid nucleation score entry was “inactive”.

For EASNCFAIRHFENKFAVETLICHIFTFVVCW [HIFTFVVCW], the amyloid nucleation score came to 0.511.

Take EASNCFAIRHFENKFAVETLICNLYKTFDYH [NLYKTFDYH]: the amyloid nucleation score is 5.54.

Take EASNCFAIRHFENKFAVETLICLYAKDWLMR [LYAKDWLMR]: the amyloid nucleation score entry was “inactive”.

Consider EASNCFAIRHFENKFAVETLICFCSVKGCCG [FCSVKGCCG], for which the amyloid nucleation score result is “inactive”.

EASNCFAIRHFENKFAVETLICESFSTVWAI [ESFSTVWAI]: the amyloid nucleation score entry is “inactive”.

Turning to EASNCFAIRHFENKFAVETLICFVCYPLRVV [FVCYPLRVV], the amyloid nucleation score result was “inactive”.

In the case of EASNCFAIRHFENKFAVETLICGVKWFTCKV [GVKWFTCKV], the amyloid nucleation score entry is “inactive”.

As to EASNCFAIRHFENKFAVETLICRRLAVSNMG [RRLAVSNMG], the amyloid nucleation score result was “inactive”.

Take EASNCFAIRHFENKFAVETLICFFCWVSSSR [FFCWVSSSR]: the amyloid nucleation score stood at 3.03.

EASNCFAIRHFENKFAVETLICFDCAGQSPI [FDCAGQSPI]: the amyloid nucleation score was 4.66.

As for EASNCFAIRHFENKFAVETLICYELKAFKHS [YELKAFKHS], the amyloid nucleation score stood at 3.32.

With EASNCFAIRHFENKFAVETLICRRMRVGMLL [RRMRVGMLL], the amyloid nucleation score entry is “inactive”.

Regarding EASNCFAIRHFENKFAVETLICYRDYQMFTN [YRDYQMFTN], the amyloid nucleation score entry was “inactive”.

Regarding EASNCFAIRHFENKFAVETLICRLMLHLNVR [RLMLHLNVR], the amyloid nucleation score entry is “inactive”.

Still in this data set, the particulars now being: random library (experiment): 3.
For the variant EASNCFAIRHFENKFAVETLICGLRYLCGPW [GLRYLCGPW], the amyloid nucleation score result is “inactive”.

As to EASNCFAIRHFENKFAVETLICKQLVHFGCC [KQLVHFGCC], the amyloid nucleation score was determined as 5.17.

With EASNCFAIRHFENKFAVETLICPFGTLIEPH [PFGTLIEPH], the amyloid nucleation score amounted to 2.4.

With EASNCFAIRHFENKFAVETLICAVGLYPACW [AVGLYPACW], the amyloid nucleation score was 6.59.

For EASNCFAIRHFENKFAVETLICLDSGTLEGR [LDSGTLEGR], the amyloid nucleation score entry is “inactive”.

Consider EASNCFAIRHFENKFAVETLICHSKVQSYEV [HSKVQSYEV], for which the amyloid nucleation score entry was “inactive”.

In the case of EASNCFAIRHFENKFAVETLICMLSRKGTRE [MLSRKGTRE], the amyloid nucleation score result is “inactive”.

Turning to EASNCFAIRHFENKFAVETLICWEHTPRSVP [WEHTPRSVP], the amyloid nucleation score is 1.59.

For the variant EASNCFAIRHFENKFAVETLICYVYSAFGNG [YVYSAFGNG], the amyloid nucleation score was 4.98.

Regarding EASNCFAIRHFENKFAVETLICLFTRRGRAT [LFTRRGRAT], the amyloid nucleation score amounted to 2.81.

For the variant EASNCFAIRHFENKFAVETLICQMIFVVYPV [QMIFVVYPV], the amyloid nucleation score was 3.2.

EASNCFAIRHFENKFAVETLICMDGESYQAL [MDGESYQAL]: the amyloid nucleation score was found to be 0.454.

Regarding EASNCFAIRHFENKFAVETLICHIHCRADDV [HIHCRADDV], the amyloid nucleation score is 8.05.

Take EASNCFAIRHFENKFAVETLICYFGFDIDRV [YFGFDIDRV]: the amyloid nucleation score was determined as 5.47.

As to EASNCFAIRHFENKFAVETLICVEPGYQCRR [VEPGYQCRR], the amyloid nucleation score entry was “inactive”.

In the case of EASNCFAIRHFENKFAVETLICCSTLWLVMA [CSTLWLVMA], the amyloid nucleation score is 4.05.

EASNCFAIRHFENKFAVETLICTSGCQREGK [TSGCQREGK]: the amyloid nucleation score is -0.203.

With EASNCFAIRHFENKFAVETLICRHKDCLDVR [RHKDCLDVR], the amyloid nucleation score entry is “inactive”.

For the variant EASNCFAIRHFENKFAVETLICRIKVKLTGS [RIKVKLTGS], the amyloid nucleation score entry is “inactive”.

In the case of EASNCFAIRHFENKFAVETLICGMKSETHVR [GMKSETHVR], the amyloid nucleation score entry was “inactive”.

On to EASNCFAIRHFENKFAVETLICGVRQPSAPF [GVRQPSAPF], for which the amyloid nucleation score result is “inactive”.

Turning to EASNCFAIRHFENKFAVETLICKHTQVSSAN [KHTQVSSAN], the amyloid nucleation score result was “inactive”.

In the case of EASNCFAIRHFENKFAVETLICIRCRHDGSR [IRCRHDGSR], the amyloid nucleation score came to 2.

Turning to EASNCFAIRHFENKFAVETLICVSPVRRGLQ [VSPVRRGLQ], the amyloid nucleation score entry is “inactive”.

Consider EASNCFAIRHFENKFAVETLICFYRRGDSSG [FYRRGDSSG], for which the amyloid nucleation score entry was “inactive”.

Consider EASNCFAIRHFENKFAVETLICVNTWVCLSC [VNTWVCLSC], for which the amyloid nucleation score is 5.17.

EASNCFAIRHFENKFAVETLICHNCRIRGHG [HNCRIRGHG]: the amyloid nucleation score was -0.15.

As for EASNCFAIRHFENKFAVETLICQFVKRPAIS [QFVKRPAIS], the amyloid nucleation score entry is “inactive”.

For the variant EASNCFAIRHFENKFAVETLICVYELVVDKL [VYELVVDKL], the amyloid nucleation score turned out to be 2.82.

For the variant EASNCFAIRHFENKFAVETLICVLKSLNVHL [VLKSLNVHL], the amyloid nucleation score is 3.29.

Take EASNCFAIRHFENKFAVETLICLTLCVRGWS [LTLCVRGWS]: the amyloid nucleation score entry was “inactive”.

For EASNCFAIRHFENKFAVETLICQTRGAYCGM [QTRGAYCGM], the amyloid nucleation score was determined as 4.78.

EASNCFAIRHFENKFAVETLICDLVRDYRER [DLVRDYRER]: the amyloid nucleation score entry is “inactive”.

Regarding EASNCFAIRHFENKFAVETLICRVLLEARRS [RVLLEARRS], the amyloid nucleation score result was “inactive”.

Consider EASNCFAIRHFENKFAVETLICAPLPEGNMR [APLPEGNMR], for which the amyloid nucleation score entry was “inactive”.

As to EASNCFAIRHFENKFAVETLICTRVCRSVHR [TRVCRSVHR], the amyloid nucleation score entry was “inactive”.

In the case of EASNCFAIRHFENKFAVETLICAIGIRWKVG [AIGIRWKVG], the amyloid nucleation score entry was “inactive”.

Take EASNCFAIRHFENKFAVETLICVYYGSDITR [VYYGSDITR]: the amyloid nucleation score worked out at 4.46.

As to EASNCFAIRHFENKFAVETLICVRLAVVHGM [VRLAVVHGM], the amyloid nucleation score result was “inactive”.

Take EASNCFAIRHFENKFAVETLICHMADHLAPL [HMADHLAPL]: the amyloid nucleation score entry was “inactive”.

In the case of EASNCFAIRHFENKFAVETLICAPYINPLGV [APYINPLGV], the amyloid nucleation score result is “inactive”.

Take EASNCFAIRHFENKFAVETLICRSQVLCAKG [RSQVLCAKG]: the amyloid nucleation score entry was “inactive”.

Take EASNCFAIRHFENKFAVETLICMCRSQFNGR [MCRSQFNGR]: the amyloid nucleation score was 4.64.

On to EASNCFAIRHFENKFAVETLICFVSHVLRLF [FVSHVLRLF], for which the amyloid nucleation score entry was “inactive”.

Take EASNCFAIRHFENKFAVETLICVKVVVGYCP [VKVVVGYCP]: the amyloid nucleation score entry was “inactive”.

Turning to EASNCFAIRHFENKFAVETLICYLAHGWRYV [YLAHGWRYV], the amyloid nucleation score result is “inactive”.

As to EASNCFAIRHFENKFAVETLICDLLFVCCVP [DLLFVCCVP], the amyloid nucleation score was determined as 5.7.

On to EASNCFAIRHFENKFAVETLICFIAAHDLVS [FIAAHDLVS], for which the amyloid nucleation score came out at 4.71.

With EASNCFAIRHFENKFAVETLICNIADASSRF [NIADASSRF], the amyloid nucleation score stood at 4.38.

For EASNCFAIRHFENKFAVETLICCRVSLCCEV [CRVSLCCEV], the amyloid nucleation score was -0.274.

Consider EASNCFAIRHFENKFAVETLICFGDVLRPGN [FGDVLRPGN], for which the amyloid nucleation score turned out to be 6.42.

As to EASNCFAIRHFENKFAVETLICRMRCVECGG [RMRCVECGG], the amyloid nucleation score entry was “inactive”.
